Hit rate of the full screen: of about 110,000 compounds, about 230 (0.21%) showed an effect of 50% or more. Some of the results follow.
molecular target: DPAP1 (Plasmodium falciparum, UniProt Q8IIJ9); assay: primary screen, percent inhibition; read by cleavage of a fluorogenic dipeptide substrate; higher = more effect of the substance; design: species or system P. falciparum D10 trophozoite lysates; single well
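Further: 30 min substrate incubation versus DMSO and 10 µM JCP410 controls.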

Sequence of DPAP1 (Q8IIJ9 whole entry, looked up): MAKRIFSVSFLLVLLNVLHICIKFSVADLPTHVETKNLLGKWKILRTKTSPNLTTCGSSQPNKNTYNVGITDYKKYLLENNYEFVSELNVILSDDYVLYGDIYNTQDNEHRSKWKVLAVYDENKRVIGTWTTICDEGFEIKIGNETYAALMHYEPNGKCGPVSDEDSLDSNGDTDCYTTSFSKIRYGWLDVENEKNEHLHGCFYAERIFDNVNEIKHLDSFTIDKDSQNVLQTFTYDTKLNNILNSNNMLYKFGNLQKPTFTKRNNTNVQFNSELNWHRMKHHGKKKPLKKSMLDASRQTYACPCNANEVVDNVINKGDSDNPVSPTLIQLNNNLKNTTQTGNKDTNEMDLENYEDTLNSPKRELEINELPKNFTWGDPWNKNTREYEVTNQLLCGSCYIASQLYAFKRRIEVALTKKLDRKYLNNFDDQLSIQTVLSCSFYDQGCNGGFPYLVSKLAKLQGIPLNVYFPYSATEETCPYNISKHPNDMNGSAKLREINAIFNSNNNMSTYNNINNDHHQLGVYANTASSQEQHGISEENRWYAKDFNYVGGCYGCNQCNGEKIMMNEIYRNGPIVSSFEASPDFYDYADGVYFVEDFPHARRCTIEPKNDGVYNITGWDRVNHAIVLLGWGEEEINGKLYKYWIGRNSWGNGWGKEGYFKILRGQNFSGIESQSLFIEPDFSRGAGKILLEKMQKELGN

SMILES | % Inhibition @ 10 uM
CC(C)C[C@H](NC(=O)c1cccc(-c2cnc(N(C)C)s2)c1)C(=O)NCC#N | 20.1%
CCOC(=O)c1c(C)[nH]c(C)c1S(=O)(=O)N(CCc1ccncc1)CC1CCCO1 (centres unmarked) | -2.5%
O=c1c(SCc2ccccc2)cc(Cl)nn1-c1ccccc1 | 0.343%
O=C(NC1CCN(Cc2ccccc2)CC1)C1CCCN1c1nnc(N2CCCC2=O)s1 (centres unmarked) | 0.623%
Cc1ccccc1-c1nc(CSCC(=O)N2CCN(Cc3ccccc3)CC2)c(C)o1 | 3.99%
Cc1ccnc2c(N3C(=O)C4CC=C(Cl)CC4C3=O)cccc12 (centres unmarked) | -2.76%
CC(C)CC(NC(=O)c1ccc(-c2csc(N)n2)cc1)C(=O)NCC#N (centres unmarked) | 9%
CN(C)c1nc(Nc2ccc([N+](=O)[O-])cc2)nc(OCC(F)(F)F)n1 | -1.59%
Cc1cc(C(C)(C)C)cc(S(=O)(=O)NCCc2ccncc2)c1C | -0.834%
CC(C)(C)c1ccc(C(=O)Nc2cnc3ccccc3c2)cc1 | -10.9%
O=C(O)c1ccccc1N1C(=O)c2cc(Cl)c(Cl)cc2C1=O | 3.8%
O=C1N=C(Nc2ccc(O)cc2)S/C1=C1\C(=O)Nc2ccc(Br)cc21 | 10.7%
O=C(C1CCCN(S(=O)(=O)c2ccc(Cl)cc2)C1)N1CCC(Cc2ccccc2)CC1 (centres unmarked) | 2.25%
O=C(N1CCCCC1)C12CC3CCC(CC(C3)C1)C2 | -0.233%
Cc1ccc(-c2cc3c4cccn4ccn3c2)cc1 | -3.65%
COc1ccc(CNC(=O)c2ccc(CN3CC(=O)N4CCCCC4C3=O)cc2)cc1 (centres unmarked) | 0.434%
NC(=O)c1ccccc1NC(=O)c1ccc(-c2ccc(Cl)cc2)o1 | 8.21%
SC(COCc1ccccc1)CN1CCN(c2ccccc2)CC1 (centres unmarked) | 1.03%
CCN(CC)S(=O)(=O)c1ccc(NC(=O)COc2cccc(C)c2)cc1 | 21.7%
O=C(COc1ccc(Cl)c(Cl)c1)Nc1ccc(Cn2cccn2)cc1 | -6.05%
COc1cc2nc(NCc3ccccn3)n3nc(-c4ccccc4)nc3c2cc1OC | -6.07%

SMILES | % Inhibition @ 10 uM
CCCCCCNC(=O)c1cnn2c(C)c(Cc3c(F)cccc3Cl)c(C)nc12 | 2.9%
COCCN1C(=O)C(O)=C(C(=O)c2ccc3c(c2)CC(C)O3)C1c1ccc(OC)c(OC)c1 (centres unmarked) | -4.06%
COc1ccccc1OCCCC(=O)Nc1cccc(C)c1C | 1.39%
CC1CCN(S(=O)(=O)c2ccc(NC(=O)CSc3ccccc3)cc2)CC1 | -1.36%
CCOC(=O)C1=C(NC(=O)c2ccc(C)cc2)S/C(=C\c2cc(Br)ccc2O)C1=O | -3.74%
O=C(O)c1ccnc(SCC(=O)c2ccccc2)c1 | -2.45%
O=C(O)C(Cc1c[nH]c2ccccc12)/N=C/c1c(O)oc2ccccc2c1=O (centres unmarked) | 3.38%
CC(C)OCCCNC(=O)c1cc(S(=O)(=O)N2CCOCC2)cn1C | -1.87%
CCCCCCc1cc2cc(C#N)c(=O)oc2cc1O | 67.5%
Brc1ccccc1CNc1ccc2c[nH]nc2c1 | 1.88%
CCn1cc(CNC(=O)c2cc(-c3cccc(C)c3)nc3ccccc23)cn1 | -5.13%
CCCCCc1ccc(-c2ccc(-c3noc(-c4ccc(Br)cc4)n3)cc2)cc1 | -2.42%
CCOc1ccc(NC(=O)C(C)Oc2ccc(C)cc2)cc1 (centres unmarked) | 0.331%
Cc1oc2c(c(C)cc3oc(=O)c4c(c32)CCC4)c1C | 3.81%
Cc1ccc(OCC(=O)O/N=C(\N)Cc2cccs2)cc1C | -3.28%
Cc1ccc2onc(CNC(=O)NC3CCCC3)c2c1 | -4.93%
CC1(C)CC(=O)C(/C=N/CCN2CCN(C(=O)c3ccc(Br)cc3)CC2)=C(O)C1 | 2.01%
COC(=O)c1ccc(C2C(C#N)=C(N)Oc3[nH]nc(C)c32)cc1 (centres unmarked) | -1.46%
Cn1c(NCC(=O)c2ccc(Cl)cc2Cl)cc(=O)n(C)c1=O | -0.865%
O=C(NC1(C(F)(F)F)C(=O)Nc2c1c(=O)[nH]c(=O)n2-c1ccc(F)cc1)c1ccc(Cl)cc1 (centres unmarked) | 3.72%
CCN1CCCC1CNC(=O)Cn1nc(C)c2sc3ccccc3c2c1=O (centres unmarked) | -5.61%

SMILES | % Inhibition @ 10 uM
CCCCOc1ccc(C(=O)N(Cc2ccco2)C2CCS(=O)(=O)C2)cc1 (centres unmarked) | 0.569%
Cc1cc2ccccc2c(=O)n1CC(=O)NCC(=O)NCC1COc2ccccc2O1 (centres unmarked) | -8.38%
CS(=O)(=O)N(CC(=O)NCCc1ccccc1)C1CCCCC1 | -0.132%
Cc1ccc(N)c(C(=O)CCCCC(=O)O)c1 | 0.84%
Cc1cccc(OCC(=O)NC23CC4CC(CC(C4)C2)C3)c1C | -21.8%
CCOc1ccc(C2CC(=O)NC3=C2C(=O)CC(c2cc(OC)ccc2OC)C3)cc1 (centres unmarked) | -2.95%
CCOc1ccc(CCNc2nc3ccc(C)cc3n3cnnc23)cc1OCC | 2.6%
CC1CCCC(NC(=O)C2c3ccccc3C(=O)N2Cc2ccc3c(c2)OCO3)C1C (centres unmarked) | -1.34%
COC(=O)c1cccc(-c2ccc(/C=C3\Sc4ccccc4C3=O)o2)c1 | -2.26%
CN(C)C(=O)c1ccccc1C(=O)N(C)C | -5.36%
Cc1ccc(S(=O)Cc2ccc(C(=O)NCCc3ccc(Cl)cc3)o2)cc1 (centres unmarked) | 0.458%
CCOC(=O)C(=O)Nc1sc(C(=O)NC2CCCC2)c(C)c1C(=O)OCC | 3.47%
CCOC(=O)c1c(NC(=S)NCc2ccccc2)sc2c1CC(C)(C)OC2 | 7.73%
O=C(NCc1ccc(F)cc1)C1c2ccccc2Oc2ccccc21 | -3.49%
O=C(COc1ccc(Br)cc1)Nc1ccc(S(=O)(=O)N2CCc3ccccc32)cc1 | -2.02%
CC(C)N(Cc1ccccc1)C(=O)c1cccc([N+](=O)[O-])c1 | -0.856%
CC(C)(C)c1cc(N/C(=N\S(=O)(=O)c2ccc(Br)cc2)c2ccccc2)no1 | -3.33%
Oc1nc2c(-c3ccccc3)nnn2c2ccccc12 | 4.02%
O=C(Nc1cccc(Cl)c1)Nc1cc(Cl)ccc1Cl | -0.127%
O=C(NC(c1ccccc1)c1ccccc1)C1CCN(c2cnccn2)CC1 | -2.71%
